Among all 410,000 compounds or so, about 7,200 (1.8%) were called active. Inconclusive results, whose numbers are uncertain, are shown with a selection of clear calls. Calls follow the shape of the dose curve; as a rule, active = well fitted activation curve with a large enough effect; inconclusive = small, poorly fitted or top-dose-only effect, or another doubt; inactive = no such curve, though single readings can be large or run the other way. A potency beside an inconclusive call is a rough fit, not a confirmed value.
experiment: qHTS of TDP-43 Inhibitors; details: TDP-43 expressing yeast growth rescue, BacTiter-Glo, 24 h; growth rescue (activation): at 46.1 µM (top of the series) unless noted; also: nearly all actives have a fitted effect of over 50% in size; as to growth rescue (activation): % of control where 0% means no effect
Method in brief: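 Readout is BacTiter-Glo luminescence of cell growth, so inhibitors register as activators. TDP-43-expressing yeast at OD600=0.02 in galactose medium, after raffinose pregrowth to mid-log, were incubated with compound for 24 hr at 30 deg C.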
Potency is read from the fitted curve at half-maximal effect; tags tell the direction and shape of the fitted curve.

Potency, active:
CN(Cc1ccccc1)c1c([N+](=O)[O-])c(=O)n(C)c2ccccc12 15.8 µM
Cc1ccc(OCc2ccccc2C)c([N+](=O)[O-])n1 11.2 µM
COc1ccc(-c2ccnc3c(Br)c(C)nn23)cc1 11.2 µM
Cc1nc2ccccc2cc1OCc1ccccc1 17.8 µM
CC(C)C(=O)NC(=S)/C=C1/N(C)c2ccccc2C1(C)C 35.5 µM
c1cnc2c(c1)ccc1cccnc12 35.5 µM
Oc1ccc(Nc2ccc3ccccc3c2)cc1 22.4 µM
Cc1c(C(=O)Nc2nc(-c3ccccn3)cs2)oc2ccccc12 6.31 µM
CC=Cc1cc(OC)c2c(c1)C(C)C(c1ccc(O)c(OC)c1)O2 (stereo not drawn) 35.5 µM
Cc1cc2n(n1)C(c1c[nH]c3ccccc13)Nc1ccccc1-2 (stereo not drawn) 7.94 µM
O=C(CSc1nc2cc(Cl)ccc2s1)NCC1CCCO1 (stereo not drawn) 20 µM
Cc1nn(CC(=O)Nc2ccc3c(c2)OCCO3)c(C)c1[N+](=O)[O-] 6.31 µM
CCOC(=O)c1cc(C)n(Cc2cccc(OC)c2OC)c1C 20 µM
CCCCCCCCc1nc(=S)[nH][nH]1 12.6 µM
Cc1ccc(-c2nc3cccnc3s2)cc1NS(=O)(=O)c1cccs1 11.2 µM

Potency, inconclusive:
N#C/C(=C\c1cccs1)Sc1nc2ccccc2s1 12.6 µM [activator, single point]
Cc1ccccc1NC(=O)C(Cc1ccccc1)N1Cc2ccccc2C1=O (stereo not drawn) 15.8 µM [activator, partial curve, poor fit]
Cc1cc(OCC(=O)N(Cc2ccc(N(C)C)cc2)Cc2ccco2)cc(C)c1Cl 35.5 µM [activator, single point]
COc1cc(-c2nnc3sc(C4CCCCC4)nn23)cc(OC)c1OC 14.1 µM [activator, single point]
O=C(Nc1ccccc1-c1nnn(CC(=O)N2CCCc3ccccc32)n1)c1ccco1 15.8 µM [activator, single point]
COc1ccc(NC(=O)c2ccc3ccccc3c2OC)cc1 15.8 µM [activator, partial curve]
O=C1CCCCCN1CSc1nc2ccccc2s1 14.1 µM [activator, single point]
CCn1nnc(NC(=O)COc2ccc(C3CCCCC3)cc2)n1 22.4 µM [activator, single point]
C=CCOC(=O)COc1ccc2c(C)c(C)c(=O)oc2c1C 10 µM [activator, partial curve, poor fit]
O=S(=O)(NCc1ccco1)c1ccc2ccccc2c1 12.6 µM [activator, single point]
CN(c1cccc(F)c1)c1cc2c(c3c1ccn3C)C1CCC2O1 (stereo not drawn) 15.8 µM [activator, partial curve]
C#CCN(C[C@@H]1[C@@H](OC(=O)NC2CC2)[C@@H](OC(=O)NC2CC2)Cn2c(=O)n(CCCCCC)c(=O)n21)S(=O)(=O)c1ccc(C)cc1 20 µM [activator, single point]
CCOc1ccc(C2=Nn3c(nnc3-c3ccccc3OC)SC2)cc1 22.4 µM [activator, partial curve]
COc1ccc2nc3ccccc3nc2c1N 15.8 µM [activator, single point]
COc1ccccc1N=Nc1nc(-c2ccccc2)c(-c2ccccc2)[nH]1 14.1 µM [activator, single point]
Cc1nn(-c2ccc(Cl)cc2Cl)c(C)c1C(=O)O 25.1 µM [activator, partial curve]
C[C@H](CO)N1C[C@H](C)[C@@H](CN(C)C(=O)Nc2ccc(C(F)(F)F)cc2)Oc2c(NC(=O)C3CCCCC3)cccc2C1=O 0.562 µM [activator, full curve, poor fit]
O=S(=O)(NCCc1ccccc1)c1ccc(Br)cc1 28.2 µM [activator, partial curve]
COc1ccc(NC(=O)Nc2cccc3ccccc23)c(OC)c1 8.91 µM [activator, partial curve]
CC(C)Oc1ccccc1C1CC(=O)Nc2cc3c(cc21)OCO3 (stereo not drawn) 25.1 µM [activator, single point]
CCOc1cccc(OCCOc2ccccc2[N+](=O)[O-])c1 3.98 µM [activator, partial curve]
O=C(c1ccccc1)c1nccc2ccccc12 14.1 µM [activator, single point]
CCCCCCc1ccc(-c2ncc(N)cn2)cc1 15.8 µM [activator, single point]
COC(=O)c1ccc(NC(=S)NC2CC3CCC2C3)cc1 (stereo not drawn) 15.8 µM [activator, single point]
O=C(NCc1cccs1)c1csc([C@@H]2O[C@H](CO)[C@H](O)[C@H](O)[C@H]2O)n1 10 µM [activator, partial curve]
COc1ccc2cc(/C=N/O)c(Cl)nc2c1 5.62 µM [activator, full curve]
C=CCNC(=S)NNC(=O)COc1ccc(Br)cc1 15.8 µM [activator, partial curve]
O=C(Cn1c(=O)ccc2cc(S(=O)(=O)N3CCCC3)ccc21)Nc1ccc(Cl)cc1 2.82 µM [activator, full curve, poor fit]
Cc1ccc(S(=O)(=O)NCc2ccccc2Br)cc1 11.2 µM [activator, partial curve]
Cc1ccc(Cl)cc1NC(=O)CSCc1cnn(-c2ccccc2)c1-n1cccc1 35.5 µM [activator, single point]
S=C(NCc1ccccc1)N/N=C/c1cccs1 2.51 µM [activator, full curve]
Cc1cccc(NS(=O)(=O)c2ccc3c(c2)CCN3C(=O)C2CC2)c1C 3.98 µM [activator, single point]
Cc1cc(C)nc(NC(=O)c2cc(-c3ccc(C)s3)nc3ccccc23)c1 20 µM [activator, partial curve]
CCOC(=O)C1(C(=O)OCC)COC(=O)C1CN1Cc2cc3ccccc3nc2C1 (stereo not drawn) 20 µM [activator, partial curve, poor fit]
Cc1cccc(CC(=O)NCCc2sc3nc(-c4ccc(F)cc4)nn3c2C)c1 11.2 µM [activator, partial curve]
O=C(COc1cccc(C(F)(F)F)c1)Nc1cccnc1 12.6 µM [activator, partial curve]
CC1(OC(=O)C2CCCC2)C(=O)C=C2C=C(c3ccsc3)N(c3ccccc3)C=C2C1=O (stereo not drawn) 22.4 µM [activator, single point]
CN(Cc1ccco1)C(=O)c1ccc(S(=O)(=O)N2CCCCCC2)cc1 35.5 µM [activator, partial curve, poor fit]
CC1CN(C(=S)Nc2cccc(Cl)c2Cl)CC(C)O1 (stereo not drawn) 22.4 µM [activator, partial curve]
Cc1ccc(Cl)cc1NS(=O)(=O)c1ccc2oc(=O)ccc2c1 10 µM [activator, partial curve]
Cc1ccc(N2CC(NC(=O)c3ccccc3Br)CC2=O)cc1 (stereo not drawn) 20 µM [activator, partial curve]
Cc1ccc(SCCNS(=O)(=O)c2ccc3c(c2)OCCO3)cc1 12.6 µM [activator, single point]
Cn1c(/C=C/c2ccccc2)nc2ccccc2c1=O 6.31 µM [activator, partial curve]

Growth rescue (activation), inconclusive:
CCn1nc(C)cc1-c1nnc(Sc2ncc([N+](=O)[O-])s2)n1C -92% [activator]
O=C(C1CCN(C2CC(=O)N(c3cccc(Cl)c3)C2=O)CC1)N1CCCC1 (stereo not drawn) -92.1% [activator]

Growth rescue (activation), inactive:
O=C(NC1CCCCC1)c1ccc(-c2ccccc2[N+](=O)[O-])o1 -2.15%
CCC1(C)CC(=O)N(c2ccc(F)c(Cl)c2)C(=O)C1 13.3%
Cc1c(O)ccc2c3c(c(=O)oc12)CCCC3 28.2%
COC(=O)c1ccc(CSc2nc3ccccc3s2)o1 29.1%
CC(=O)N1CCc2cc(S(=O)(=O)NC(Cc3ccccc3)C(=O)Nc3ccc(C)cc3C)ccc21 (stereo not drawn) 0%
Clc1cccc(-n2ncc3c(Nc4ccc5c(c4)OCCO5)ncnc32)c1 0%
Oc1ccc(CN2CCCCC2)nc1-c1ccccc1 2.99%
COC(=O)c1c(NC(=O)c2ccccc2)sc(Cc2ccccc2)c1C 22%
COc1ccc2cc(CCNC(=O)CC(C)(C)C)c(=O)[nH]c2c1 8.88%
O=C(Cn1ncc(Cl)c(Cl)c1=O)Nc1ccc2c(c1)OCO2 13.2%
CCOc1ccc(C(=O)NCCc2sc(-c3ccc(F)cc3)nc2C)cc1 6.06%
CCOc1ccccc1CNC(=O)c1ccc2c(c1)nc1n2CCC(C)C1 (stereo not drawn) -3.83%
COC(=O)[C@@]1(Cc2ccc(OC)cc2)[C@@H]2C(=CC(=O)[C@H]2CC(=O)C(=O)N2CCCC2)CN1C(=O)c1ccccc1 -0.784%

— PubChem BioAssay AID652104 (National Center for Advancing Translational Sciences (NCATS), 2013)
